Measurements taken from PMC4336329 (PLoS ONE, 2015).
Hit rate of the full screen: of about 310,000 compounds, about 2,200 (0.71%) showed an effect of 50% or more. Effects have a minus sign here. The list shows a part of the results.

Target: human ether-à-go-go-related gene (hERG) potassium channel (human, UniProt Q12809)
Test: primary screen, population patch clamp on CHO cells stably expressing hERG

human ether-à-go-go-related gene (hERG) potassium channel, sequence (Q12809 whole entry, looked up): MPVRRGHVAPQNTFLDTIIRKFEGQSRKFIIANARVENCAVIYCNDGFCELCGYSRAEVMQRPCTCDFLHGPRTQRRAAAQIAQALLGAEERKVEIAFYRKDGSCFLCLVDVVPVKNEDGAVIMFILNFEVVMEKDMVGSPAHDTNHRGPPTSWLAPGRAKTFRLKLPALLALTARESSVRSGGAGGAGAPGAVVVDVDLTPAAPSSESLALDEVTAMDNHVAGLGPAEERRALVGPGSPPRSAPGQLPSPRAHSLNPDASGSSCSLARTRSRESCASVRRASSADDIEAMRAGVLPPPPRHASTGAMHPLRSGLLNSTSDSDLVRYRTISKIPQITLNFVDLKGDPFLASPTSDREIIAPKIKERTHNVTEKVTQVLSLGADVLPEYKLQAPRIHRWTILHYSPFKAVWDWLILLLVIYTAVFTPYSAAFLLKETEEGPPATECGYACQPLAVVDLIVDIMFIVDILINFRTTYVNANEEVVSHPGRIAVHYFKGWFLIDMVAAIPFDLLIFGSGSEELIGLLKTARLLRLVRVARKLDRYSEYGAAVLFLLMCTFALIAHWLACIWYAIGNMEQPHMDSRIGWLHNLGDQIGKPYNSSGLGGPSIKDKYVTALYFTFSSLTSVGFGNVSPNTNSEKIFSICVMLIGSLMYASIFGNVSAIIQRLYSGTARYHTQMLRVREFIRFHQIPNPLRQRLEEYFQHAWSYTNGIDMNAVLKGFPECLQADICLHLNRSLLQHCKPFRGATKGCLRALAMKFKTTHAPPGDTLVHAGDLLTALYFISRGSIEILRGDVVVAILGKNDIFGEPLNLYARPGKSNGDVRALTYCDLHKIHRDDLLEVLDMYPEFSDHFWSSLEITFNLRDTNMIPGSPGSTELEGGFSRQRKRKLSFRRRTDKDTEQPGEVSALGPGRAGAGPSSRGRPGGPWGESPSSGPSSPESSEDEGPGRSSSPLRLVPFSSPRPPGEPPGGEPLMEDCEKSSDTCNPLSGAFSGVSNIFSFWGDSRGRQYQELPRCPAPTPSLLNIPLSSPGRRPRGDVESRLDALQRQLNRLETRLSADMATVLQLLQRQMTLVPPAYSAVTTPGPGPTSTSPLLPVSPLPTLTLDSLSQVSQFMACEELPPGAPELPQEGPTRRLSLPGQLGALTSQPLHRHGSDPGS

Compared with `Cc1nc2scc(-c3ccc(C(C)C)cc3)c2c(=O)n1N`, `CCc1ccc(C(=O)Cc2cc3cccc(OC)c3oc2=O)cc1` is lower in “hERG current change (%, negative = inhibition) at 1uM” value: 20.6% for the first, 19.8% for the second.

First: O=C(CSc1ccc2nnc(-c3cccnc3)n2n1)Nc1ccccc1
Second: O=C(Cn1nnc(-c2ccccc2NC(=O)c2ccco2)n1)Nc1ccccc1
The “hERG current change (%, negative = inhibition) at 1uM” value of the first is lower: 5.35% for the first, 15.7% for the second.

Compared with `CC(C)c1nc(CNC(=O)c2ccc(OC3CCN(Cc4ccccn4)CC3)cc2)cs1`, `COc1ccc(-n2c(=S)[nH]c3cc(C(=O)NCc4ccccc4)ccc3c2=O)c(OC)c1` is higher in “hERG current change (%, negative = inhibition) at 1uM” value: 4.67% for the first, 11.8% for the second.

Going from `CCCCC(=O)Nc1cc(C(=O)NCCc2ccccc2)ccc1Cl` to `CN(CC(=O)Nc1ccccc1Cl)C(=O)COC(=O)c1ccc(Cl)cc1[N+](=O)[O-]`, the “hERG current change (%, negative = inhibition) at 1uM” value falls from 3.68% to -3.76%.

Compared with `O=C(NCc1nc(-c2ccccc2)no1)c1ccc2c(c1)OCO2`, `COc1ccc(C2(O)CCN(C(=O)c3ccc4c(c3)OCO4)CC2)cc1` is lower in “hERG current change (%, negative = inhibition) at 1uM” value: 13% for the first, 8.68% for the second.

Going from `CCCCCn1c(=O)[nH]c2c(c1=O)CCC2` to `COCCn1c(=O)sc2ccccc2c1=O`, the “hERG current change (%, negative = inhibition) at 1uM” value rises from 5.51% to 11.6%.

Going from `COc1ccc(CCNC(=O)CCN2C(=O)C3CC=CCC3C2=O)cc1OC` (centres unmarked) to `O=C(CCCN1C(=O)c2ccccc2C1=O)NC1CCCCCC1`, the “hERG current change (%, negative = inhibition) at 1uM” value falls from 10% to 2.82%.

Going from `CCOc1ccc(/C=C2\C(=O)c3ccccc3OC2c2ccccc2)cc1` (centres unmarked) to `CC(=O)Nc1ccc(C2NC(=O)c3ccccc3O2)cc1` (centres unmarked), the “hERG current change (%, negative = inhibition) at 1uM” value falls from 12.8% to 0.0336%.

First: C[C@H](NC(=O)[C@H](Cc1ccccc1)n1c(=O)[nH]c2ccccc2c1=O)C(=O)N1CCC(C(=O)O)CC1
Second: O=C(c1ccc(Br)o1)N1CCC(Cc2ccccc2)CC1
The “hERG current change (%, negative = inhibition) at 1uM” value of the first is lower: 7.12% for the first, 16% for the second.

First: C=CCN1C(=O)/C(=N/n2cnnc2)c2ccccc21
Second: CN1CCc2c(c3ccccc3n2C)C1.Cl
The “hERG current change (%, negative = inhibition) at 1uM” value of the first is higher: 20.7% for the first, 13.8% for the second.

Compared with `CCc1nnc(NC(=O)CCC(=O)NC2CCCc3ccccc32)s1` (centres unmarked), `CCOC(=O)c1c(NC(=O)C2COc3ccccc3O2)sc2c1CCN(Cc1ccccc1)C2.Cl` (centres unmarked) is higher in “hERG current change (%, negative = inhibition) at 1uM” value: 2.6% for the first, 4.58% for the second.

First: COC(=O)[C@H](CC(C)C)NC(=O)N1CCC(C)CC1
Second: CCOC(=O)c1c(NC(=O)c2ccc(S(=O)(=O)N3CCOCC3)cc2)sc2c1CCN(C(C)C)C2
The “hERG current change (%, negative = inhibition) at 1uM” value of the first is higher: 10.5% for the first, -3.06% for the second.

First: C[N+]1(C)CCc2cc3c(cc2[C@H]1[C@@H]1OC(=O)c2c1ccc1c2OCO1)OCO3.[I-]
Second: Cc1nc(N2CCN(Cc3ccccc3)CC2)[nH]c(=O)c1C
The “hERG current change (%, negative = inhibition) at 1uM” value of the first is higher: 16.5% for the first, -3.5% for the second.

Going from `Cc1nn(CC(=O)N2CCN(C34CC5CC(CC(C5)C3)C4)CC2)c(C)c1[N+](=O)[O-]` to `O=C(c1ccc2c(c1)OCCO2)N1CCN(c2ccc([N+](=O)[O-])cc2)CC1`, the “hERG current change (%, negative = inhibition) at 1uM” value falls from 8.78% to 1.16%.

Compared with `CCOC(=O)/C=C1\SC(C)C(=O)N1CC(=O)N(CCC#N)c1ccccc1` (centres unmarked), `N/C(=N\OC(=O)Cc1ccccc1)c1cccc(Br)c1` is higher in “hERG current change (%, negative = inhibition) at 1uM” value: 1.85% for the first, 9.77% for the second.

First: O=C(c1cc2cc(Cl)ccc2oc1=O)N1CCOCC1
Second: O=C(c1ccc(Cl)c(Cl)c1)N1CCOCC1
The “hERG current change (%, negative = inhibition) at 1uM” value of the first is higher: 3.97% for the first, 3.12% for the second.

First: COc1ccccc1C(=O)NNC(=O)c1ccc(Br)o1
Second: COc1ccccc1/C=C/C=N/NC(=O)Cc1cccn1C
The “hERG current change (%, negative = inhibition) at 1uM” value of the first is lower: 11.8% for the first, 12% for the second.

Going from `Cl.NCCCC[C@H](NC(=O)C1CCNCC1)c1nnc([C@@H](N)Cc2ccc(O)cc2)o1` to `CC(C)(C)[C@H]1CCC(=O)N([C@H](CSc2ccc(Br)cc2)Cc2ccccc2)CC1`, the “hERG current change (%, negative = inhibition) at 1uM” value falls from 19.9% to 11.8%.

Going from `Cc1cccc(S(=O)(=O)NNC(=O)Cc2cccn2C)c1` to `C/C(=N\NC(=O)Cc1cccn1C)c1ccco1`, the “hERG current change (%, negative = inhibition) at 1uM” value falls from 15.7% to 13.1%.

First: O=C(Nc1cccc2ncccc12)c1cccc(F)c1
Second: O=C(COc1ccc(Cl)cc1Cl)Nc1ccc(C(=O)Nc2ccccc2C(=O)O)cc1
The “hERG current change (%, negative = inhibition) at 1uM” value of the first is lower: -1.16% for the first, 2.84% for the second.

Compared with `CSC(=NC#N)N1CCN(c2ccccc2)CC1`, `CC1(C)CC(=O)C2=C(C1)C(c1cn(-c3ccccc3)nc1-c1ccccc1)C(C#N)=C(N)O2` (centres unmarked) is higher in “hERG current change (%, negative = inhibition) at 1uM” value: 6.71% for the first, 11.7% for the second.

First: Cc1ccc(C)c(NC(=S)NNC(=O)c2csc3c2CCC(C)C3)c1 (centres unmarked)
Second: COc1ccc(Cl)cc1C(=O)NN=C1CCCC1
The “hERG current change (%, negative = inhibition) at 1uM” value of the first is lower: 5.44% for the first, 7.2% for the second.

Going from `Cc1ccc2nc(/C(C#N)=N/O)[nH]c2c1` to `CC(C)[C@H](NC(=O)Nc1cccc(Br)c1)C(=O)O`, the “hERG current change (%, negative = inhibition) at 1uM” value falls from 14% to 6.27%.

Compared with `C#CCOCCOCCOCCNc1nc(N2CCN(C(=O)[C@H](CCCC[NH3+])n3cc(CC(C)O)nn3)CC2)nc(N2CCN(C(=O)[C@H](CCCC[NH3+])n3cc(CC(C)O)nn3)CC2)n1.[Cl-]` (some centres unmarked), `Cc1sc(NC(=O)c2ccco2)c(C(c2cccnc2)N2CCN(CCO)CC2)c1C` (centres unmarked) is lower in “hERG current change (%, negative = inhibition) at 1uM” value: 7.41% for the first, -10.5% for the second.

Compared with `CCOc1cc(C2C(C(=O)OC)=CN(C3CCCC3)C=C2C(=O)OC)cc(Br)c1O`, `Cc1cnc(C(=O)OCC(=O)NC2CCCCCCC2)cn1` is lower in “hERG current change (%, negative = inhibition) at 1uM” value: 11.2% for the first, 3.97% for the second.

First: O=P(c1ccccc1)(c1ccccc1)c1ccc(O)cc1
Second: Cc1cc2nnn(-c3nnc(-c4ccccc4)c4ccccc34)c2cc1C
The “hERG current change (%, negative = inhibition) at 1uM” value of the first is higher: 9.57% for the first, 5.53% for the second.

First: O=C(NCc1cccnc1)c1cccc(S(=O)(=O)N2CCCCC2)c1
Second: CCCc1cc(=O)oc2cc(OCc3cccc(OC)c3)c(Cl)cc12
The “hERG current change (%, negative = inhibition) at 1uM” value of the first is higher: 13.5% for the first, 8.83% for the second.

First: O=C1CC(C(F)(F)C(F)(F)C(F)(F)C(F)F)=Nc2ccccc2N1
Second: COC(=O)c1c(-c2snnc2C)n[nH]c1C
The “hERG current change (%, negative = inhibition) at 1uM” value of the first is lower: -1.58% for the first, 5.01% for the second.
